This is one part of the list.

This experiment deals with T1, C. trachomatis L2/434/Bu expressing GFP (CTL2-GFP).
T1 construct: L2/434/Bu GFP intracellular growth in HeLa cells
Set-up: species or system HeLa; C. trachomatis total inclusion area by high-content imaging, normalised to DMSO. Particulars: total inclusion area; 28.5 h, 10 µM; inhibitor. An outline of the steps: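 Imaging read-out: GFP inclusions and Hoechst nuclei captured by high-content imaging after fixation. Inclusion area/number = chlamydial growth; nuclei count = host cell viability. MIC calculated per earlier method.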
In the case of `COc1cccc(C(=O)Nc2nc(-c3ccccc3)cs2)c1OC` [CBK287697], the “% of control remaining” value stood at 112.435.
Regarding `O=C(O)CC1C(=O)NCCN1Cc1cccc(Oc2ccccc2)c1` (centres unmarked) [CBK270023], the “% of control remaining” value was found to be 111.912.
As to `OC1(c2cccnc2F)CCN(Cc2c(F)cccc2Cl)CC1` [CBK283148], the “% of control remaining” value is 100.233.
Turning to `Cc1nc(C(=O)NC2CCN(C)CC2)ccc1C(=O)O` [CBK304262], the “% of control remaining” value amounted to 56.1545.
For `CCCn1c(C)c(C)n2c3c(=O)n(CCC(=O)OC)c(=O)n(C)c3nc12` [CBK306048], the “% of control remaining” value is given as 36.7228.
Turning to `Cn1cc2c(n1)CC1CCC2N1C(=O)c1ccc(F)c(F)c1` (centres unmarked) [CBK281691], the “% of control remaining” value is 108.727.
In the case of `COc1ncc(-c2nccnc2NCc2cccc([N+](=O)[O-])c2)c(OC)n1` [CBK036680], the “% of control remaining” value was 82.7255.
Consider `O=C(c1ccc2c(c1)N(Cc1ccccc1Cl)C(=O)CO2)c1cccs1` [CBK286411], for which the “% of control remaining” value turned out to be 91.1903.
For `COC(=O)c1ccc(CO)nc1` [CBK261376C], the “% of control remaining” value stood at 105.183.
As for `O=C1N[C@]2(CCc3ccccc31)CN(CC1CC=CCC1)C[C@H]2CO` (some centres unmarked) [CBK284794], the “% of control remaining” value is listed as 125.073.
Regarding `O=C(COc1cccc2c1CCNC2=O)Nc1ccccc1` [CBK287730], the “% of control remaining” value stood at 99.4679.
With `CN1CCN(c2cc(-c3ccncc3)nc3ccccc23)CC1` [CBK050976B], the “% of control remaining” value is 83.1029.
In the case of `CC(=O)Nc1ccc(OCC(O)CNC2CCCC2)cc1` (centres unmarked) [CBK267857C], the “% of control remaining” value is on record as 134.346.
Turning to `O=C1CNC(=O)N1CC(O)Cn1c2ccc(Cl)cc2c2cc(Cl)ccc21` (centres unmarked) [CBK265792], the “% of control remaining” value was found to be 84.9646.
As for `O=C(O)CC(NC(=O)OCc1ccccc1)c1ccccc1` (centres unmarked) [CBK265351], the “% of control remaining” value is 90.2948.
For `COc1cccc(OC)c1OCCN1CCC(NC(=O)Nc2ccc(Cl)cn2)CC1` [CBK051515], the “% of control remaining” value is recorded as 107.71.
For the molecule `Cc1nc(NC(=O)C2Cc3ccccc3S2)sc1-c1n[nH]c(=S)n1C` (centres unmarked) [CBK295337], the “% of control remaining” value worked out at 105.899.
In the case of `CCN(CC)Cc1cc([N+](=O)[O-])cc2c1OCOC2` [CBK296613], the “% of control remaining” value amounted to 113.6.
On to `CC1CCN(Cc2ccc(-c3cn(CC(=O)NCc4ccc(Br)cc4)nn3)cc2)CC1` [CBK164709], for which the “% of control remaining” value was found to be 40.3048.
`O=C(C1=C(O)C(=O)N(CCCn2ccnc2)C1c1ccccc1)c1cccs1` (centres unmarked) [CBK264484]: the “% of control remaining” value is listed as 108.333.
Regarding `COc1ccc(S(=O)(=O)Nc2ccsc2C(=O)N2CCN(C)CC2)cc1OC` [CBK004627], the “% of control remaining” value amounted to 108.436.
`OCCCNc1nccnc1-c1cccnc1` [CBK037277]: the “% of control remaining” value was 92.3728.
As for `O=C(Nc1ccc(F)cc1)c1sccc1NS(=O)(=O)c1cc(F)c(Br)cc1F` [CBK004586], the “% of control remaining” value was 74.0211.
Consider `CCCc1nc(NC(CCO)c2ccc(C)cc2)c2cnn(C)c2n1` (centres unmarked) [CBK307309], for which the “% of control remaining” value is 84.9258.
Consider `Cn1nc2c(c1C(=O)NCC(C)(C)N1CCCCC1)CCCC2` [CBK281878], for which the “% of control remaining” value stood at 114.123.
On to `CN(C)c1ccc(/C=N/NC(=O)CSc2nnc(-c3ccccc3)n2-c2ccccc2)cc1` [CBK262263], for which the “% of control remaining” value came to 119.453.
Regarding `Cc1nn(C)cc1C(C)NC(=O)c1ccc2c(c1)ncn2C` (centres unmarked) [CBK281732], the “% of control remaining” value is recorded as 102.722.
With `Cc1cc(NC(=O)C2CCN(C)CC2)c2ccccc2n1` [CBK122730] the figure was 108.506; with `Cc1ccc(-c2nc(C)c(C(=O)Nc3ccc(-n4cncn4)nc3)s2)o1` [CBK297770], 98.8935.
Turning to `c1cnc(N2CCCC2)c(OC2CCCNC2)n1` (centres unmarked) [CBK115283], the “% of control remaining” value worked out at 116.703.
For `O=C(O)[C@@H]1CSC(c2ccc(C(F)(F)F)cc2)N1` (some centres unmarked) [CBK286921], the “% of control remaining” value came to 92.1074.
Turning to `Cc1ccc(S(=O)(=O)N2CCOCC2)cc1S(=O)(=O)N1CCOCC1` [CBK261733], the “% of control remaining” value is reported as 101.579.
Consider `CCC(=O)N1CCC2(CC1)Nc1ccccc1-n1cccc12` [CBK283488], for which the “% of control remaining” value was 93.5056.
For the molecule `COc1cccc(-c2cccc(C3CCCN(C(=O)Cc4c[nH]c5ccccc45)C3)n2)c1` (centres unmarked) [CBK286207], the “% of control remaining” value was 92.5603.
With `CN1C(=O)C(C)(C)Oc2ccc(C(O)c3ccco3)cc21` (centres unmarked) [CBK284469] the figure was 92.6351; with `CSCCC(NC(=O)NCCc1ccccc1)c1nnc2ccccn12` (centres unmarked) [CBK304417], 84.2075; with `COc1cc(OC)nc(C(NC(=O)C2CCN(Cc3nccs3)CC2)c2ccc(Cl)cc2)n1` (centres unmarked) [CBK148217], 109.04.
On to `CCSc1nnc(NC(=O)c2cnc(SC)nc2CC)s1` [CBK291250], for which the “% of control remaining” value is listed as 120.077.
For the molecule `CCc1nnc(N/N=C/c2cc(Cl)c(OCc3ccccc3F)c(OC)c2)n1N` [CBK278282C], the “% of control remaining” value is 88.7598.
On to `CCNC(=O)Nc1nc2cccnc2cc1-c1ccc(OC)c(C)c1` [CBK081241], for which the “% of control remaining” value is 124.731.
For `CC(=O)Nc1cccc(C(=O)OCC(=O)N2CCCCC2C)c1` (centres unmarked) [CBK305868], the “% of control remaining” value was 24.6378.

Values taken from article PMC12040169 (PLOS Biology, 2025).
